The supplement of paper PMC3334620
Over roughly 33,000 sequences, “E-score (-0.5 to 0.5)” has its median near -0.013; the highest 2% begin near 0.3. This is one part of the list.

Molecular target: T1, Msn1 (UniProt P22148)
T1 sequence: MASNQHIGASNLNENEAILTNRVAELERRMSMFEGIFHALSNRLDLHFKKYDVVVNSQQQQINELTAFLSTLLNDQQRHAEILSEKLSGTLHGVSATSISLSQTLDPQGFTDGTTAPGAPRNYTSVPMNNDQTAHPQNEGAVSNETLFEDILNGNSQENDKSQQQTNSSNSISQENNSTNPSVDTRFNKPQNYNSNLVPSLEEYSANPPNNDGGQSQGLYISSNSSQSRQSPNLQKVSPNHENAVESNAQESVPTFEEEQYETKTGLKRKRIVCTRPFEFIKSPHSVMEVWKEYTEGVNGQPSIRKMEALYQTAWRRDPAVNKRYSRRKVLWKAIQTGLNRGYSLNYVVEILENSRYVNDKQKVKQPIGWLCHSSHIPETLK
Assay: PBM E-score (8-mer binding enrichment) (E-score (-0.5 to 0.5)); higher = stronger / more preferred TF binding; most listed sequences are background and not binding sites
Conditions: protein concentration: 200 nM; construct: GST-full length
Outline: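 Full-length yeast transcription factors or their DNA-binding domains, GST-tagged and expressed with PURExpress, were applied at about 100-200 nM to universal all-10-mer Agilent arrays. These arrays had been made double-stranded by primer extension on fresh or once-stripped slides. Detection used fluorescent anti-GST, normalisation used masliner, and E-scores for ungapped eight-base words pooled with reverse complements came from the Universal PBM Analysis Suite.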

Row | Sequence | PBM E-score
1 | CAATATCA | 0.19
2 | GTCAGAAC | -0.0899
3 | CAGCGGAA | 0.0846
4 | CACAATCG | 0.00494
5 | ACCCGGGA | 0.0524
6 | GCGGAGTA | -0.114
7 | GAAACAGC | -0.0224
8 | CCGCTAAC | -0.137
9 | TAGGCGCA | -0.0236
10 | CCATGGCA | 0.0767
11 | ACTCCGCA | -0.0892
12 | ACAGAACA | 0.0442
13 | CCTGCTAC | 0.017
14 | ATCACAGC | 0.053
15 | AATGGGCC | -0.254
16 | ACCGGTCG | 0.0493
17 | CTGTCATA | 0.0936
18 | CCCATCAC | -0.137
19 | CGAGAAGC | 0.0414
20 | CCCTGATC | -0.269
21 | AGGATTCG | 0.00985
22 | AGCTTCGA | -0.0376
23 | CATGAGTA | -0.0485
24 | ACTGTCTC | -0.00421
25 | TCTGGACA | 0.381

Row | Sequence | PBM E-score
26 | ACAGAGCG | 0.0128
27 | ATTGTGCG | -0.0742
28 | ACTTAAGT | 0.142
29 | CGATTAAC | 0.0885
30 | CATTACCG | 0.0274
31 | GAGGGGAC | 0.0225
32 | ACAGACCG | -0.128
33 | ACACATCA | -0.0471
34 | CCCGTCTA | 0.04
35 | AGGTGACA | 0.236
36 | ACATAACA | 0.182
37 | AATGGCAG | -0.022
38 | AGTCACCA | -0.154
39 | ATATTTGA | 0.115
40 | ATGCCTTA | -0.264
41 | AATCATGT | 0.164
42 | GGTCCTCA | -0.0923
43 | GCCCATGA | -0.081
44 | GCACGCCC | -0.0404
45 | GAGTTTGC | -0.0259
46 | CACTTAAG | 0.0666
47 | CTAAGCTC | -0.0292
48 | ATGGTGCG | -0.0932
49 | ACGGCCCT | -0.305
50 | GTCGCGAA | 0.141

Row | Sequence | PBM E-score
51 | ACCGACAT | 0.28
52 | ACCAAACC | -0.0217
53 | CGAACAGA | 0.0524
54 | AAGATCAC | 0.0378
55 | GCCAGGTA | 0.0163
56 | CCAGGCTC | -0.0697
57 | TATCCGAA | 0.0901
58 | GAGAGCCA | -0.0964
59 | CCGGGTTC | -0.208
60 | AACTATAC | -0.00679
61 | AACGTTAC | -0.0224
62 | GAAGATCA | -0.022
63 | GCGATGCA | -0.287
64 | GGGTGACC | -0.145
65 | CCTGGGAG | -0.229
66 | CGAGGATC | -0.0779
67 | AAGGGCTA | -0.166
68 | GACATTCC | 0.456
69 | AGGCGCTA | -0.0523
70 | CACTCATG | -0.0169
71 | ACGCACAG | 0.00267
72 | CTTGCACC | -0.0624
73 | CCGCCCAC | -0.104
74 | CAAAACAA | -0.0625
75 | AGTTCATC | -0.0233

Row | Sequence | PBM E-score
76 | GGCGGGTA | -0.136
77 | AAGGATGT | -0.0435
78 | AGGCTAAA | -0.0101
79 | CACCGTTA | 0.0221
80 | AAGGATCC | -0.132
81 | AATGATTA | 0.186
82 | GGCGACAC | -0.0116
83 | CGTCTCGA | 0.0524
84 | GTCTATGA | 0.212
85 | CCGGCAAG | 0.0593
86 | AAATATTG | 0.181
87 | CACATACG | -0.144
88 | CGTGTACC | 0.164
89 | GGCCATTA | 0.0762
90 | CAGTTGGC | -0.0784
91 | ACGCGATA | -0.0373
92 | ACTATTAA | 0.174
93 | AGAAATGC | 0.112
94 | ATTCTGGA | 0.182
95 | CGAGGAAC | 0.134
96 | AAGCAGCA | -0.0795
97 | ATTAGTCA | 0.0896
98 | CGGTCTGA | 0.0415
99 | AATATCGG | 0.177
100 | GTTGCCAA | -0.0588

Row | Sequence | PBM E-score
101 | AATCGCAG | 0.0174
102 | TCAGACAA | 0.367
103 | GGGCGATA | -0.16
104 | CAGATAAA | 0.00479
105 | AATTTCTA | 0.0498
106 | GTGCCCCA | -0.156
107 | AAACCCGG | 0.0746
108 | AGGTCTTC | -0.196
109 | GATCTTTA | -0.0408
110 | ATTGGATG | 0.0568
111 | GACCACCA | -0.246
112 | AAAATCAT | 0.134
113 | ATGTCCTG | 0.487
114 | AATGGAGT | -0.122
115 | ACCTAGCT | -0.2
116 | CCGTCCCC | -0.328
117 | ATCTCTAG | -0.193
118 | ATACTTTA | 0.0212
119 | CTGCATAC | 0.0422
120 | TAGACAAA | 0.446
121 | AATGTTCG | 0.0628
122 | CCAGGCCA | -0.214
123 | AACTCAAT | 0.137
124 | GCGAATAC | -0.114
125 | AACAATGG | 0.0345

Row | Sequence | PBM E-score
126 | CGGTACCC | -0.236
127 | CCCAGCAG | -0.173
128 | AACTGGCA | 0.0327
129 | CCGCATGC | 0.0628
130 | TTCCCCAA | 0.0823
131 | ACTATACT | 0.118
132 | CAAGTTAA | 0.0484
133 | TATTTTGA | 0.033
134 | GCCATTTA | 0.0227
135 | CAGCATCA | -0.126
136 | ATGGGAAT | -0.188
137 | GCATGCCA | -0.204
138 | TCGTCCAA | 0.0731
139 | CAAAGGCA | 0.0184
140 | CCCATTTC | -0.195
141 | AAATAGCT | -0.0751
142 | GTGCGCTA | -0.12
143 | CTGTTCAA | -0.132
144 | CACGCTTC | -0.188
145 | CTATCATA | -0.0179
146 | AAACGACT | 0.0613
147 | ATGAAATG | 0.0486
148 | GCGTCTTA | -0.0952
149 | GGCTGAAC | 0.0163
150 | CCGACACC | -0.0775

Row | Sequence | PBM E-score
151 | AGGAAGTG | -0.171
152 | GTACGTGA | 0.0697
153 | ATCAACAA | 0.0312
154 | ACGATGCC | -0.294
155 | ATAAGTTG | -0.00629
156 | CTAAAGCC | -0.159
157 | ACGACGTA | 0.109
158 | AACTACCT | -0.0246
159 | ATACGGTG | -0.0953
160 | CCGGTAAC | 0.0836
161 | GCGCAACA | 0.0115
162 | CGTGTTAG | -0.0135
163 | GAAAGGTC | 0.00658
164 | GCATGTTA | 0.0661
165 | ACTTGACG | -0.0849
166 | CTTTGCGA | 0.0688
167 | AAGGCCTA | -0.103
168 | ACCCTCTG | -0.223
169 | GAGAGGCC | -0.205
170 | AATTGTGT | -0.0542
171 | GGTTGATA | -0.0457
172 | CATTTACA | 0.0253
